Measurements taken from the supplement of paper PMC9046079.
Structures can show the parent of a compound that is named as a salt. ± gives the standard deviation of the averaged measurements. Some of the results follow.

Columns and labels:
[1] = test system: murine small intestinal organoids (ENR+CD Paneth differentiation); assay: cellular ATP (CellTiter-Glo 3D) relative to plate median (log10 fold change); higher = more viable cells; conditions: 6 d
[2] = test system: murine small intestinal organoids (ENR+CD Paneth differentiation); assay: carbachol-stimulated secreted lysozyme activity relative to plate median (log10 fold change); higher = more Paneth cell lysozyme secretion; conditions: 6 d, carbachol 10 µM
[3] = test system: murine small intestinal organoids (ENR+CD Paneth differentiation); assay: basal (non-stimulated) secreted lysozyme activity relative to plate median (log10 fold change); higher = more Paneth cell lysozyme secretion; conditions: 6 d
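For basal (non-stimulated) secreted lysozyme activity relative to plate median in this document: ISC-enriched organoid precursors grown as 2.5D pseudo-monolayer on Matrigel, compound given on day 0 and day 3, plate values LOESS-normalized before median fold change, three murine donors.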
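For cellular ATP (CellTiter-Glo 3D) relative to plate median in this document: 2.5D pseudo-monolayer culture of ISC-enriched organoids partly embedded atop Matrigel, compound added on day 0 and again on day 3, per-plate LOESS correction before median fold change.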

| SMILES | cellular ATP (log10) ([1]; 0.08 µM) | cellular ATP (log10) ([1]; 0.4 µM) | cellular ATP (log10) ([1]; 2 µM) | cellular ATP (log10) ([1]; 10 µM) | carbachol-stimulated secreted lysozyme activity (log10) ([2]; 0.08 µM) | carbachol-stimulated secreted lysozyme activity (log10) ([2]; 0.4 µM) | carbachol-stimulated secreted lysozyme activity (log10) ([2]; 2 µM) | carbachol-stimulated secreted lysozyme activity (log10) ([2]; 10 µM) | basal (log10) ([3]; 0.08 µM) | basal (log10) ([3]; 0.4 µM) | basal (log10) ([3]; 2 µM) | basal (log10) ([3]; 10 µM) |
| --- | --- | --- | --- | --- | --- | --- | --- | --- | --- | --- | --- | --- |
| CC1=C(C(=O)Nc2cc3cn[nH]c3cc2F)C(c2ccc(C(F)(F)F)cc2)CC(=O)N1 (stereo unspecified) | 0.527 ± 0.2 | 0.545 ± 0.19 | 0.488 ± 0.29 | 0.37 ± 0.2 | 0.246 ± 0.054 | 0.271 ± 0.16 | 0.247 ± 0.12 | 0.155 ± 0.13 | 0.137 ± 0.11 | 0.128 ± 0.06 | 0.14 ± 0.09 | 0.0594 ± 0.1 |
| C[C@@H]1C(=O)O[C@H]2C[C@@]34[C@H]5C[C@@H](C(C)(C)C)[C@]36[C@@H](OC(=O)[C@@H]6O)O[C@@]4(C(=O)O5)[C@]21O [Ginkgolide A] | 0.00475 ± 0.23 | -0.0168 ± 0.28 | 0.0398 ± 0.14 | -0.0119 ± 0.086 | 0.193 ± 0.27 | 0.253 ± 0.013 | 0.0234 ± 0.055 | -0.029 ± 0.018 | 0.0454 ± 0.022 | 0.0255 ± 0.086 | 0.0296 ± 0.07 | 0.0517 ± 0.19 |
| CC(C)c1noc(N2CCC(COc3ccc(-c4ccc(S(C)(=O)=O)cc4)nc3)CC2)n1 | 0.161 ± 0.13 | 0.192 ± 0.22 | 0.224 ± 0.057 | 0.196 ± 0.15 | 0.179 ± 0.069 | 0.144 ± 0.054 | 0.0925 ± 0.1 | 0.0807 ± 0.18 | 0.0782 ± 0.07 | 0.0498 ± 0.056 | 0.0276 ± 0.083 | 0.0199 ± 0.12 |
| CCN[C@H]1CN(CCCOC)S(=O)(=O)c2sc(S(N)(=O)=O)cc21 [Brinzolamide] | -0.00717 ± 0.27 | -0.0681 ± 0.16 | 0.118 ± 0.099 | 0.0779 ± 0.22 | -0.0961 ± 0.13 | 0.00972 ± 0.0019 | -0.0214 ± 0.029 | 0.0296 ± 0.014 | 0.133 ± 0.095 | 0.0841 ± 0.098 | 0.0586 ± 0.088 | 0.0598 ± 0.051 |
| C[C@@H](O[C@H]1OCCN(Cc2n[nH]c(=O)[nH]2)[C@H]1c1ccc(F)cc1)c1cc(C(F)(F)F)cc(C(F)(F)F)c1 [Aprepitant] | 0.313 ± 0.17 | 0.403 ± 0.18 | 0.145 ± 0.15 | 0.0505 ± 0.22 | 0.191 ± 0.17 | 0.1 ± 0.024 | -0.0386 ± 0.0042 | -0.166 ± 0.032 | 0.0965 ± 0.1 | 0.0611 ± 0.033 | 0.00498 ± 0.029 | -0.0895 ± 0.038 |
| COC(=O)CCSCc1ccc(-c2onc(C)c2NC(=O)OC(C)c2ccccc2Cl)cc1 (stereo unspecified) | -0.011 ± 0.22 | -0.108 ± 0.11 | -0.0325 ± 0.058 | 0.0219 ± 0.11 | 0.0351 ± 0.17 | 0.0365 ± 0.049 | -0.000381 ± 0.051 | -0.0389 ± 0.064 | 0.00504 ± 0.011 | -0.00876 ± 0.036 | 0.0596 ± 0.21 | -0.103 ± 0.048 |
| O=C1NC(=O)/C(=C/c2cccc(C(F)(F)F)c2)S1 | -0.284 ± 0.42 | -0.559 ± 0.55 | -0.676 ± 0.64 | -0.536 ± 0.52 | 0.0641 ± 0.17 | -0.197 ± 0.4 | -0.192 ± 0.31 | -0.311 ± 0.2 | -0.0032 ± 0.18 | -0.166 ± 0.15 | -0.111 ± 0.21 | -0.208 ± 0.15 |
| CC(C)OC(=O)OCOP(=O)(CO[C@H](C)Cn1cnc2c(N)ncnc21)OCOC(=O)OC(C)C [Tenofovir Disoproxil Fumarate] | 0.103 ± 0.11 | -0.0228 ± 0.2 | -0.492 ± 0.37 | -1.03 ± 0.69 | 0.00518 ± 0.11 | 0.0238 ± 0.047 | -0.218 ± 0.14 | -0.465 ± 0.0099 | 0.0187 ± 0.075 | 0.0413 ± 0.2 | -0.165 ± 0.087 | -0.256 ± 0.064 |
| COc1cc2c(cc1OC)[C@@H]1Cc3ccc(OC)c(OC)c3CN1CC2 [Rotundine] | 0.277 ± 0.24 | 0.164 ± 0.39 | 0.169 ± 0.12 | 0.222 ± 0.21 | 0.0917 ± 0.16 | 0.0419 ± 0.059 | 0.258 ± 0.2 | 0.11 ± 0.19 | 0.14 ± 0.076 | 0.147 ± 0.18 | 0.0715 ± 0.046 | 0.109 ± 0.12 |
| COc1ccc2[nH]c([S@@+]([O-])Cc3ncc(C)c(OC)c3C)nc2c1 [Esomeprazole Sodium] | 0.288 ± 0.17 | 0.199 ± 0.21 | 0.386 ± 0.19 | 0.271 ± 0.17 | 0.0676 ± 0.086 | 0.122 ± 0.025 | 0.0118 ± 0.037 | -0.0149 ± 0.075 | 0.0858 ± 0.066 | 0.233 ± 0.15 | 0.0344 ± 0.061 | -0.016 ± 0.08 |
| Cc1[nH]c(/C=C2\C(=O)Nc3ccc(S(=O)(=O)Cc4c(Cl)cccc4Cl)cc32)c(C)c1C(=O)N1CCC[C@@H]1CN1CCCC1 | 0.471 ± 0.21 | 0.62 ± 0.11 | 0.561 ± 0.12 | 0.0238 ± 0.34 | 0.151 ± 0.012 | 0.361 ± 0.27 | 0.132 ± 0.16 | -0.185 ± 0.063 | 0.182 ± 0.042 | 0.272 ± 0.13 | 0.183 ± 0.1 | -0.107 ± 0.038 |
| CC[C@H](C)C(=O)O[C@H]1C[C@@H](C)C=C2C=C[C@H](C)[C@H](CC[C@@H]3C[C@@H](O)CC(=O)O3)[C@H]21 [Lovastatin] | -0.322 ± 0.36 | -0.492 ± 0.15 | -1.17 ± 0.23 | -1.39 ± 0.54 | 0.0237 ± 0.077 | 0.00989 ± 0.12 | -0.504 ± 0.1 | -0.542 ± 0.043 | 0.00193 ± 0.082 | -0.0565 ± 0.043 | -0.279 ± 0.14 | -0.271 ± 0.11 |
| NC(=O)c1cnc(N[C@@H]2CCCC[C@@H]2N)nc1Nc1cccc(-n2nccn2)c1 | -0.0925 ± 0.091 | 0.167 ± 0.079 | -0.021 ± 0.33 | -0.878 ± 0.84 | -0.146 ± 0.083 | 0.0489 ± 0.11 | 0.0167 ± 0.47 | -0.502 ± 0.066 | -0.0722 ± 0.12 | 0.0186 ± 0.019 | -0.0816 ± 0.12 | -0.257 ± 0.15 |
| COc1ccc(-n2nc(C(N)=O)c3c2C(=O)N(c2ccc(N4CCCCC4=O)cc2)CC3)cc1 [Apixaban] | -0.0887 ± 0.14 | 0.111 ± 0.039 | -0.0603 ± 0.25 | -0.0773 ± 0.045 | 0.0759 ± 0.094 | 0.0384 ± 0.14 | 0.0319 ± 0.076 | -0.117 ± 0.03 | 0.00406 ± 0.051 | -0.0299 ± 0.038 | 0.0291 ± 0.1 | -0.0818 ± 0.053 |
| Cc1noc(-c2ccc(CSCCC(=O)O)cc2)c1NC(=O)OC(C)c1ccccc1Cl (stereo unspecified) | -0.0508 ± 0.18 | -0.00214 ± 0.067 | -0.0776 ± 0.17 | -0.165 ± 0.13 | -0.0125 ± 0.09 | 0.136 ± 0.26 | 0.0188 ± 0.028 | -0.114 ± 0.093 | 0.000572 ± 0.031 | 0.117 ± 0.18 | -0.00788 ± 0.043 | -0.0376 ± 0.095 |
| O=C(C[S+]([O-])Cc1ccco1)NC/C=C\COc1cc(CN2CCCCC2)ccn1 (stereo unspecified) [Lafutidine] | 0.152 ± 0.17 | 0.145 ± 0.12 | 0.138 ± 0.052 | -0.0984 ± 0.23 | 0.011 ± 0.022 | 0.0357 ± 0.069 | 0.0987 ± 0.068 | -0.0162 ± 0.011 | 0.0427 ± 0.092 | 0.0068 ± 0.036 | 0.0367 ± 0.029 | 0.0755 ± 0.07 |
| Cc1cnc(NC(=O)Nc2cc(Br)c(C)cc2OC[C@@H]2CNCCO2)cn1 | -0.0043 ± 0.17 | -0.238 ± 0.04 | -0.396 ± 0.13 | -0.983 ± 0.23 | 0.0215 ± 0.014 | -0.162 ± 0.11 | -0.306 ± 0.13 | -0.418 ± 0.026 | -0.00526 ± 0.056 | -0.0909 ± 0.071 | -0.193 ± 0.058 | -0.233 ± 0.067 |
| NS(=O)(=O)c1ccc(NC(=O)Nc2ccc(F)cc2)cc1 | -0.0362 ± 0.039 | 0.227 ± 0.076 | -0.137 ± 0.18 | 0.0278 ± 0.41 | 0.0595 ± 0.076 | 0.127 ± 0.047 | 0.162 ± 0.38 | 0.0216 ± 0.019 | 0.0941 ± 0.12 | 0.0658 ± 0.059 | 0.071 ± 0.11 | 0.0117 ± 0.047 |
| COc1ccc(CNCc2cccc3ccccc23)cc1 | -0.0095 ± 0.19 | -0.151 ± 0.18 | -0.247 ± 0.28 | -0.0402 ± 0.12 | 0.114 ± 0.1 | -0.0361 ± 0.045 | 0.116 ± 0.21 | 0.0256 ± 0.019 | 0.03 ± 0.037 | -0.0134 ± 0.029 | 0.0727 ± 0.018 | -0.0178 ± 0.054 |
| COc1cc(Br)c(Nc2nc(-c3c(C)nc4ncccn34)cs2)c(Br)c1 | -0.794 ± 1 | -0.235 ± 0.3 | -0.808 ± 0.77 | -0.929 ± 0.84 | -0.165 ± 0.41 | -0.0362 ± 0.091 | -0.154 ± 0.27 | -0.148 ± 0.33 | -0.0966 ± 0.26 | 0.00882 ± 0.039 | -0.00877 ± 0.23 | -0.0609 ± 0.17 |
| COc1ccc(-c2nc3cc(C4=NNC(=O)CC4C)ccc3[nH]2)cc1 (stereo unspecified) [Pimobendan] | -0.022 ± 0.26 | 0.193 ± 0.15 | 0.206 ± 0.24 | 0.139 ± 0.13 | 0.194 ± 0.18 | 0.0705 ± 0.015 | 0.227 ± 0.27 | -0.122 ± 0.092 | 0.0377 ± 0.059 | 0.0627 ± 0.067 | 0.129 ± 0.14 | -0.0663 ± 0.047 |
| C=CC(=O)N1CCC[C@@H](n2nc(-c3ccc(Oc4ccccc4)cc3)c3c(N)ncnc32)C1 | -0.0274 ± 0.28 | -0.466 ± 0.61 | -0.521 ± 0.35 | -0.931 ± 0.82 | -0.162 ± 0.026 | -0.229 ± 0.054 | -0.354 ± 0.13 | -0.392 ± 0.082 | -0.0711 ± 0.026 | -0.141 ± 0.078 | -0.202 ± 0.11 | -0.199 ± 0.093 |
| CN1C2CCCC1CC(NC(=O)c1nn(C)c3ccccc13)C2 (stereo unspecified) [Granisetron HCl] | -0.214 ± 0.075 | -0.086 ± 0.068 | -0.178 ± 0.091 | -0.297 ± 0.17 | 0.0253 ± 0.065 | 0.172 ± 0.11 | -0.0307 ± 0.033 | -0.206 ± 0.013 | 0.061 ± 0.13 | -0.00237 ± 0.047 | 0.0178 ± 0.028 | -0.0434 ± 0.16 |
